Reference: patent publication US20240124575A1 (SIMCERE ZAIMING PHARMACEUTICAL, published 2024)

Key:
[1] = target: T1, human CD33 on U937 cells (endogenous) (human, UniProt P20138); experiment: FACS, U937 cells
T1 construct: whole, on cells

[2] = target: T2, human CD33-His (extracellular domain Asp 18-His 259) (human, UniProt P20138 18-259); experiment: ELISA, antigen coated
T2 construct: range 18-259; bought protein; also called hCD33-his; human CD33 protein; not shown: His tag

[3] = target: T1, human CD33 on U937 cells (endogenous); experiment: FACS, U937 cells; remark: listed apart in the source
T1 sequence (P20138 18-364): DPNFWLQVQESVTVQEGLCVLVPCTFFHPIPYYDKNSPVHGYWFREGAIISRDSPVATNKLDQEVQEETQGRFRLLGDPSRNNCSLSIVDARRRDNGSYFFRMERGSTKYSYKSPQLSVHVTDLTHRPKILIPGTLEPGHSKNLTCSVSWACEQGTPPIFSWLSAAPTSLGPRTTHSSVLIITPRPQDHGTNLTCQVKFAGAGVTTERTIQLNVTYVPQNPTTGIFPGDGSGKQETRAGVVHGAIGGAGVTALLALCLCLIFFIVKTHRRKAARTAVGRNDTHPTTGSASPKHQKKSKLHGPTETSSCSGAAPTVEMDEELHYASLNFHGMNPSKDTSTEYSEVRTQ

[4] = target: T3, human CD33 on CHO-K1 cells (CHO-K1-human CD33) (human, UniProt P20138); experiment: FACS, CHO-K1-human CD33 cells
T3 construct: whole, on cells; stably transfected CHO-K1 clones; also called CHO-K1-hCD33-B8; CHO-K1-human CD33 B8

[5] = target: T3, human CD33 on CHO-K1 cells …; experiment: FACS on CHO-K1-human CD33 cells
human CD33-V-his [6] = target: T4, human CD33-V-his (human, UniProt P20138 18-144); experiment: ELISA on coated human CD33-V-his
T4 construct: expressed in HEK293E; also called hCD33-V-his; human CD33 protein V-domain; not shown: His tag

human CD33-V-his [7] = target: T4, human CD33-V-his; experiment: ELISA on coated human CD33-V-his; remark: listed apart in the source
T4 sequence (P20138 other isoform, or with tags, fused parts or gaps limits assumed): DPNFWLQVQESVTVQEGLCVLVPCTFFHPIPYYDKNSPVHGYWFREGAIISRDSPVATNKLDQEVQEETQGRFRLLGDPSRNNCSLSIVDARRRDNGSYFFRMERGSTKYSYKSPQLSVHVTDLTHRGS

[8] = target: T2, human CD33-His (extracellular domain …); experiment: ELISA, antigen coated; remark: listed apart in the source
[9] = target: T3, human CD33 on CHO-K1 cells …; experiment: FACS, CHO-K1-human CD33 cells; remark: listed apart in the source
human CD33-V-his [10] = target: T4, human CD33-V-his; experiment: ELISA on coated human CD33-V-his; remark: listed apart in the source
human CD33-V-his [11] = target: T4, human CD33-V-his; experiment: ELISA on coated human CD33-V-his; remark: listed apart in the source

- EC50 [1]: 1.99 nM
- Max MFI [1]: 1390 MFI
- OD450 at 0.0001 nM [2]: 0.05 OD450
- OD450 at 0.001 nM [2]: 0.06 OD450
- OD450 at 0.01 nM [2]: 0.08 OD450
- OD450 at 0.1 nM [2]: 0.39 OD450
- OD450 at 1 nM [2]: 0.71 OD450
- OD450 at 10 nM [2]: 1.56 OD450
- OD450 at 100 nM [2]: 1.35 OD450
- EC50 [3]: 4.05 nM
- Max MFI [3]: 1170 MFI
- EC50 [4]: 0.39 nM
- Max MFI [4]: 9920 MFI
- EC50 (read off the curve) [5]: ~0.2 nM
- EC50 (read off the curve) (human CD33-V-his [6]): ~0.06 nM
- EC50 (read off the curve) (human CD33-V-his [7]): ~0.2 nM
- OD450 at 0.0001 nM [8]: 0.04 OD450
- OD450 at 0.001 nM [8]: 0.06 OD450
- OD450 at 0.01 nM [8]: 0.26 OD450
- OD450 at 0.1 nM [8]: 0.74 OD450
- OD450 at 1 nM [8]: 1.48 OD450
- OD450 at 10 nM [8]: 1.56 OD450
- OD450 at 100 nM [8]: 1.3 OD450
- EC50 [9]: 0.16 nM
- Max MFI [9]: 6920 MFI
- EC50 (read off the curve) (human CD33-V-his [10]): ~0.2 nM
- EC50 (read off the curve) (human CD33-V-his [11]): ~0.2 nM
B1: SGN-33 scFv-hIgG1Fc (Fc fusion)
chain: QVQLVQSGAEVKKPGASVKVSCKASGYTFTNYDINWVRQAPGQGLEWIGWIYPGDGSTKYNEKFKAKATLTADTSTSTAYMELRSLRSDDTAVYYCASGYEDAMDYWGQGTTVTVSSGGGGSGGGGSGGGGSDIQMTQSPSSLSASVGDRVTINCKASQDINSYLSWFQQKPGKAPKTLIYRANRLVDGVPSRFSGSGSGQDYTLTISSLQPEDFATYYCLQYDEFPLTFGGGTKVEIK[letters of human IgG1 Fc with changes left out]
notes: scFv-hFc format; also called CD33 antibody

Where two headings read alike, the source gives them in different places.
